According to PubChem BioAssay AID1508642 (National Center for Advancing Translational Sciences (NCATS), 2021):
In all, about 43,000 compounds went through this assay and about 200 (0.47%) were called active. About 12% were inconclusive and are not listed. Calls come from the whole dose curve; as a rule, active = well fitted cell-killing curve with a large enough effect; inconclusive = small, poorly fitted or top-dose-only effect, or effect the other way; inactive = flat fitted curve, though single readings scatter. Some of the results follow.

assay: Cell viability qHTS assay in S16 Pmp22-F2sN cells; settings: S16 Pmp22-F2sN Schwann cells viability, CellTiter-Glo, 24 h; series mostly up to 57.5 µM; activity change, negative = cytotoxicity: at the top concentration; note: nearly all actives have a fitted effect of over 65% in size
Procedure, shortened: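 S16 Pmp22-F2sN Schwann cells (500-1,000/well) in phenol-red-free DMEM with 10% FBS received 23 nL compound by pin tool for 24 h at 37 °C. Viability was then read as CellTiter-Glo luminescence after 15 min at room temperature.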
% is set by controls: 0 for no effect and ±100 for the full control effect.

Row | Structure (SMILES) | activity change, negative = cytotoxicity
1 | Cc1ccc(NC(=O)c2c(C)oc3c2C2=NCCN2C=N3)cc1F | inactive: -4.26%
2 | CCc1ccc(-n2c(=O)c3sc4ccccc4c3n(CC(=O)NCc3ccccc3)c2=O)cc1 | inactive: 4.45%
3 | Cc1c(Cl)cccc1NC(c1ccc(F)cc1)c1nnc(-c2ccccc2)o1 (configuration not stated) | inactive: 15.6%
4 | O=C(Cn1cccc1C(=O)c1ccccc1)NCc1ccccc1Cl | inactive: 10.3%
5 | O=C(Nc1cccnc1)c1cc(-c2ccc(Cl)cc2)on1 | inactive: 2.24%
6 | O=C(c1ccc2c(c1)N(Cc1cccc(F)c1)C(=O)c1ccccc1S2)N1CCC2(CC1)OCCO2 | inactive: -0.252%
7 | Cc1cccn2c(=O)cc(CSc3nnc(NC(=O)COc4ccccc4)s3)nc12 | inactive: 1.05%
8 | COC(=O)c1cc2sccc2n1CC(=O)Nc1ccc(OC)c(OC)c1 | inactive: -3.83%
9 | Cc1ccc(NC(=O)Nc2cn(CC(C)C)c(=O)c3ccccc23)cc1N(C)C | inactive: 0.538%
10 | COc1ccc(-c2cc(C(C)=O)c(C)n2CCC(=O)NCc2ccc(C)cc2)cc1 | inactive: 1.28%
11 | CCOC(=O)c1cc(S(=O)(=O)N2CCN(c3cccc(C)c3C)CC2)[nH]n1 | inactive: -3.97%
12 | CNC(=O)c1c(NC(=O)c2nc(SCc3ccc(C)cc3)ncc2Cl)sc2c1CCCC2 | inactive: 1.58%
13 | CCN(c1ccccc1C)S(=O)(=O)c1nnc(NC(=O)c2ccco2)s1 | inactive: 9.94%
14 | COc1ccccc1OCC(=O)N1CCC(c2nc3ccccc3o2)CC1 | inactive: 3.6%
15 | Cc1ccc(-n2ncc(C(=O)NC3CCCCC3)c2C2CCN(C(=O)OC(C)(C)C)CC2)cc1 | inactive: -4.74%
16 | Cc1nc2sccn2c(=O)c1S(=O)(=O)Nc1cc(C(F)(F)F)ccc1Cl | inactive: 7.16%
17 | Cc1ccc(CCNC(=O)c2ccc3c(c2)nc2n3CCOC2)cc1 | inactive: 18%
18 | Cc1ccccc1OCCCCn1nnc2sc3c(c2c1=O)CCC(C)C3 (configuration not stated) | inactive: 12.1%
19 | CCOCCCn1c(SCC(=O)Nc2ccccc2Cl)nc2c(oc3ccccc32)c1=O | inactive: 2.4%
20 | COCCNC(=O)c1ccc(-c2nc(CS(=O)(=O)c3ccccc3)c(C)o2)cc1 | inactive: 1.19%
21 | CN1C(=O)C2(SCC(=O)N2c2ccc(Cl)cc2)c2ccccc21 (configuration not stated) | inactive: 2.32%
22 | O=C(Nc1ccc(F)c(Cl)c1)N1CCC(CN2CCOCC2)CC1 | inactive: 4.56%
23 | CCc1ccc(-n2nc3ccc(NC(=O)COc4ccc(OC)cc4)cc3n2)cc1 | inactive: 8.27%
24 | COc1cccc(Cn2c(CNS(=O)(=O)c3ccc(Cl)s3)nc3cccnc32)c1 | inactive: -13.6%
25 | CCc1nn2c(=O)c(S(=O)(=O)Nc3ccc(C(C)C)cc3)c(C)nc2s1 | inactive: 6.46%

Row | Structure (SMILES) | activity change, negative = cytotoxicity
26 | O=C(CSc1nc2c(c(=O)[nH]1)CN(Cc1ccc3c(c1)OCO3)CC2)Nc1ccccc1Cl | inactive: 1.83%
27 | CCOc1ccc(NC(=O)CSc2nc3ccsc3c(=O)n2CCCCCC(=O)O)cc1 | inactive: -7.59%
28 | CC(=O)N1CCCc2cc(S(=O)(=O)N3CCCC(C(=O)NCc4ccc(C)cc4)C3)ccc21 (configuration not stated) | inactive: -21.5%
29 | CC(C)CCNC(=O)C(Cc1ccccc1)NS(=O)(=O)c1ccc2c(c1)c(=O)n(C)c(=O)n2C (configuration not stated) | inactive: 0.346%
30 | Cc1ccc(S(=O)(=O)C(CNC(=O)COc2ccccc2)c2ccco2)cc1 (configuration not stated) | inactive: -5.96%
31 | CCCOc1ccc(-c2cc(C(F)(F)F)c(C#N)c(SCCC(=O)O)n2)cc1 | inactive: -23.7%
32 | CCCN(CCC)C(=O)Cn1c(=O)n(CCCCCC(=O)NCc2ccccc2Cl)c(=O)c2sccc21 | inactive: 6.27%
33 | Cc1ccc(CNC(=O)CSc2nc3n[nH]c(C)c3c(=N)n2-c2ccccc2Cl)cc1 | inactive: 19.9%
34 | O=C(Nc1ccccc1C(=O)OCc1cc(=O)n2nc(C3CC3)sc2n1)c1cccc(F)c1 | inactive: -0.946%
35 | CS(=O)(=O)N1CCc2cc(C(=O)Nc3ccc(C(F)(F)F)cc3)ccc21 | inactive: 4.61%
36 | Cc1cc(C)n(-c2nc3cc(Cl)ccc3nc2N2CCN(c3ccccc3F)CC2)n1 | inactive: 2.19%
37 | CCOc1ccccc1CNCCSc1nnnn1C | inactive: 13.3%
38 | CCOCCn1ccc2c(OCC(=O)Nc3cccc(F)c3)cccc2c1=O | inactive: -25.4%
39 | CCOc1cc(-c2ccc(OC(=O)c3ccccc3)c(OC)c2)cc(=O)c2c(C)oc(C)c12 | inactive: 0.919%
40 | COc1cccc(Cc2nc3ccccc3nc2SCC(=O)Nc2cc(OC)ccc2OC)c1 | inactive: 5.4%
41 | COc1ccc(OC)c2sc(N3CCN(C(=O)C4COc5ccccc5O4)CC3)nc12 (configuration not stated) | inactive: 0.823%
42 | Cc1ccc(C2c3c(oc4ccccc4c3=O)C(=O)N2c2nnc(C)s2)cc1 (configuration not stated) | inactive: 3.83%
43 | CCN(CCCNC(=O)CN1N=C(c2ccccc2)CCC1=O)c1ccccc1 | inactive: -2.14%
44 | O=c1c2sc3ccccc3c2n(Cc2ccccc2)c(=O)n1CCc1ccccc1 | inactive: 16.4%
45 | COc1ccc(C)cc1Nc1ncnc2c1c(-c1ccccc1)cn2-c1ccc(C)cc1 | inactive: 1.41%
46 | CC(C)c1ccc(NC(=O)CCS(=O)(=O)c2ccc3c(c2)CC(=O)N3C)cc1 | inactive: -14%
47 | O=S(=O)(c1ccccc1)c1nnn2c1nc(NCc1ccccc1)c1cc(Cl)ccc12 | inactive: -19.3%
48 | O=C(Nc1cccc(F)c1)c1oc2ccccc2c1NC(=O)C12CC3CC(CC(C3)C1)C2 | inactive: 6.92%
49 | Cc1nc2nc(C)c(CCC(=O)NCc3ccccc3)c(C)n2n1 | inactive: -9.23%
50 | Cc1ccc2occ(CC(=O)Nc3ccc(S(=O)(=O)N4CCC(C)CC4)cc3)c2c1 | inactive: -23.6%

Row | Structure (SMILES) | activity change, negative = cytotoxicity
51 | O=C(NCc1ccco1)c1ccc(Cn2c(SCc3ccccc3F)nc3cccnc32)cc1 | inactive: -26.8%
52 | CCN1CCN(c2ncnc3c2cnn3-c2cccc(C)c2)CC1 | inactive: 0.836%
53 | O=C(CSc1ncccc1C(=O)Oc1ccccc1Cl)Nc1ccccc1Cl | inactive: 0.87%
54 | CN(C)c1ccc(CNC(=O)C2COc3ccccc3C2)cc1 (configuration not stated) | inactive: 0.873%
55 | O=C(NCc1ccc(Cl)cc1)NC1COc2ccccc2C1 (configuration not stated) | inactive: 5.07%
56 | CC1CCN(S(=O)(=O)c2ccc3c(c2)N(CC(=O)NCC(C)c2ccccc2)C(=O)CO3)CC1 (configuration not stated) | inactive: 3.56%
57 | Cc1c(C(=O)OCc2ccccc2)[nH]c2c1C(=O)CC(c1ccc(Cl)cc1)C2 (configuration not stated) | inactive: -26.7%
58 | CCOc1ccc(C(=O)c2oc3ccccc3c2NC(=O)c2cc(-c3ccc(C)cc3)on2)cc1 | inactive: 2.35%
59 | Cc1ccc(-c2cc(C(F)(F)F)n3ncc(-c4ccccc4)c3n2)cc1 | inactive: 6.81%
60 | O=C(NC1CCCCC1)c1ccc2c(c1)N(Cc1ccccc1Cl)C(=O)c1ccccc1S2 | inactive: 5.45%
61 | COc1ccc(CCNC(=O)Cn2cc(S(=O)(=O)Cc3ccc(F)cc3)c3ccccc32)cc1OC | inactive: -12.9%
62 | CC(C)CN(CC(C)C)CC(O)Cn1cc(/C=C/C(=O)c2ccccc2)c2ccccc21 (configuration not stated) | inactive: -4.57%
63 | O=C(COc1ccc(F)cc1)OCc1cc(=O)n2nc(-c3cccs3)sc2n1 | inactive: 2.59%
64 | COc1cccc(CNS(=O)(=O)c2c(C(=O)N3CCC(C)CC3)c(C)n(C)c2C)c1 | inactive: -0.526%
65 | CCOc1ccc(S(=O)(=O)Nc2ccc3oc4c(c3c2)CC(C)CC4)cc1 (configuration not stated) | inactive: -26.4%
66 | COc1ccccc1CNC(=O)COCc1cc(-c2ccc3c(c2)OCO3)on1 | inactive: -1.6%
67 | COc1ccc(C)c2sc(NC(=O)c3ccc(S(=O)(=O)N4CCCC4)cc3)nc12 | inactive: -3.09%
68 | CCOc1ccccc1CNC(=O)Cn1nc(N2CCN(c3ccccc3)CC2)ccc1=O | inactive: -13.3%
69 | COc1ccc(C(=O)NCc2ccc3c(c2)CCN3C(=O)c2ccc(F)cc2)cc1 | inactive: 11.5%
70 | COc1cc(NS(=O)(=O)c2c(C)nc3sc(C)c(C)n3c2=O)cc(OC)c1 | inactive: 11.4%
71 | Cc1cccc(N(C)S(=O)(=O)c2cc3[nH]c(=O)c(=O)[nH]c3cc2C)c1 | inactive: 8.7%
72 | CCCCC(=O)Nc1nnc(S(=O)(=O)N(C)Cc2ccccc2)s1 | inactive: 4.34%
73 | CCSc1nnc2c(n1)OC(c1ccc(OC)c(OC)c1)N(C(C)=O)c1ccccc1-2 (configuration not stated) | inactive: -2.04%
74 | CN(C)c1ccc(CNC(=O)C2CCN(Cc3cc4ccccc4n3Cc3ccccc3)CC2)cc1 | inactive: -14.9%
75 | Cc1ccc(-c2noc(CSc3nnc(C)n3-c3ccc(C)c(C)c3)n2)cc1 | inactive: -0.61%

Row | Structure (SMILES) | activity change, negative = cytotoxicity
76 | COc1ccc(Cl)cc1NC(=O)CSc1ccc2nnc(CCNS(=O)(=O)c3ccccc3)n2n1 | inactive: 17.9%
77 | O=c1cc(-c2ccccc2)n2c(SCc3ccccc3Cl)nnc2[nH]1 | inactive: 10.4%
78 | COc1ccc(-n2c(=O)c3c4c(sc3n(C)c2=O)CN(C(C)=O)CC4)cc1 | inactive: -8.79%
79 | COc1ccccc1CNC(=O)C(=O)NCC(c1cccs1)S(=O)(=O)c1cccs1 (configuration not stated) | inactive: -2.31%
80 | Cc1ccc2oc(C(=O)N(Cc3sccc3C)C3CCS(=O)(=O)C3)c(C)c2c1 (configuration not stated) | inactive: -4.93%
81 | COc1cccc(CNC(=O)c2nc(Cn3nc(C)c(Br)c3C)no2)c1 | inactive: -26%
82 | CCOc1ccc(Nc2c(S(=O)(=O)c3ccc(C)cc3)cnc3ccc(F)cc23)cc1 | inactive: -17.3%
83 | Cc1ccc2[nH]c(=O)c3cc(C(=O)NC4CCC(C)CC4)sc3c2c1 (configuration not stated) | inactive: 18.3%
84 | CCOc1ccc(NC(=O)c2cc(S(=O)(=O)N3CCN(c4ccccc4F)CC3)ccc2F)cc1 | inactive: -12.7%
85 | Cc1c(Cl)cccc1NC(=O)CSc1nc(=O)n(Cc2ccco2)c2c1CCC2 | inactive: -29.1%
86 | Cc1ccc(CCNC(=O)CN(c2ccc(C)cc2)S(=O)(=O)N(C)C)cc1 | inactive: 0.268%
87 | COc1ccccc1C(=O)Nc1nnc2n1CCS2 | inactive: -9.68%
88 | COc1cccc2c1cc1c(=O)n(CC(=O)NCc3ccco3)nc(C)n12 | inactive: -2.9%
89 | O=C(NCCc1ccc(Cl)cc1)c1ccc(CS(=O)(=O)c2ccc(Cl)cc2)o1 | inactive: -28.5%
90 | Cc1cccc(C)c1NC(=O)C(NS(=O)(=O)c1cccs1)c1ccccc1 (configuration not stated) | inactive: -4.87%
91 | O=C(Cn1ccn(-c2ccc(F)cc2)c(=O)c1=O)Nc1ccc(F)cc1 | inactive: 0.117%
92 | CCN(CC)C(=O)c1sc2c(c1C)c(=O)n(CCc1ccccc1)c(=O)n2Cc1cc(C)ccc1C | inactive: 18.1%
93 | O=C(CSc1nnc(-c2cccs2)o1)Oc1ccccc1Cl | inactive: 7.61%
94 | CC(C)(C)C(=O)NCC(c1ccc2c(c1)OCO2)N1CCOCC1 (configuration not stated) | inactive: 5.57%
95 | COc1cccc(N2CCN(C(=O)c3cc4c(s3)-c3ccccc3OC4)CC2)c1 | inactive: 5.54%
96 | COc1cc(CNC(=O)c2ccc3c(c2)c(C)c(C)n3Cc2cccc(C)c2)cc(OC)c1OC | inactive: -17.6%
97 | CCCC(=O)OCc1cnc(C)c2oc(=O)c(C(=O)Nc3cccc(C(F)(F)F)c3)cc12 | inactive: 16.5%
